Laboratory results as given in paper PMC12040169 (PLOS Biology, 2025).
The other results are listed elsewhere or left out.

system: T1, C. trachomatis L2/434/Bu expressing GFP (CTL2-GFP); design: species or system HeLa; C. trachomatis total inclusion area by high-content imaging, normalised to DMSO; conditions: total inclusion area; 28.5 h, 10 µM; inhibitor
T1 construct: L2/434/Bu GFP intracellular growth in HeLa cells
Method in brief: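 High-content images of fixed, Hoechst-stained infected cultures supply inclusion area and count (growth) plus nuclei number (viability), complementing bulk GFP/resorufin fluorescence. MIC determination is unchanged from the primary assay.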

SMILES	% of control remaining
O=[N+]([O-])c1cc(S(=O)(=O)Nc2cccc(-c3cnco3)c2)ccc1Cl [CBK067125]	26.7659
Cc1cc(NS(=O)(=O)c2ccc(NC(=O)c3cc(-c4ccc(C)o4)nc4ccccc34)cc2)nc(C)n1 [CBK262628]	104.039
CCn1cc(CN(CCO)C(=O)c2cccc(C#N)c2C)cn1 [CBK304196]	106.002
O=C1O[C@@H](CCl)CN1c1ccc(N2CCOCC2)c(F)c1 [CBK017613]	70.2842
COc1ccc(CC(=O)Nc2nc(OC)cnc2-c2ccoc2)cc1 [CBK145435]	104.432
CCCOc1ccc(C(N)CC(=O)O)cc1 (stereo not shown) [CBK261360]	97.5727
COc1ccccc1C1(O)CCN(CC(O)c2ccc(C(C)(C)C)cc2)CC1 (stereo not shown) [CBK286335]	38.3222
CN1CCN(c2cc(N3CCN(C(=O)c4ccc(F)cc4F)CC3)c([N+](=O)[O-])cc2F)CC1 [CBK265280]	98.5082
O=C(Nc1nn(Cc2ccc(Oc3ccccc3)cc2)c2ccccc12)c1ccno1 [CBK048224]	78.1711
O=C(NCC1CCCO1)c1ccc(-n2ccnc2)c(-n2cccc2)c1 (stereo not shown) [CBK285356]	86.0154
O=C(CN1CCC2(CC1)CN(CCO)c1ccccc12)Nc1ccc(F)c(Cl)c1 [CBK126761]	63.7717
FC(F)(F)c1ccncc1-n1cccc1 [CBK021909]	93.3974
O=C(CSc1nnc(-c2cccnc2)n1-c1ccccc1)Nc1ccc(Br)cc1 [CBK265203]	75.0248
O=C1CC(C(=O)N2CCN(c3ncccn3)CC2)c2ccccc21 (stereo not shown) [CBK144505]	82.1366
CN(Cc1ccccc1)Cc1cc(CC2(NCc3ccccc3)COC2)no1 [CBK289645]	105.506
c1ccc2c(Sc3nccnc3N3CCCC3)cccc2c1 [CBK089527]	93.6652
Clc1ccc(COc2ccc(/C=N/Nc3nc(N4CCOCC4)nc(N4CCOCC4)n3)cc2)c(Cl)c1 [CBK262061]	102.246
Nc1ccc(-c2cncc(NCCc3ccccn3)n2)cc1 [CBK065632]	129.486
Cc1ccccc1C(NC(=O)C1CCN(C(=O)OCc2ccccc2)CC1)c1ccc(=O)[nH]c1 (stereo not shown) [CBK083200]	89.2232
CCCCC(=O)/N=C(\N)Nc1nc2ccccc2o1 [CBK287937]	7.818
Cc1cc(C(F)(F)F)n(CC(C)CNC(=O)Cc2csc(C)n2)n1 (stereo not shown) [CBK306733]	71.9598
Cc1ccc(Oc2ccc([N+](=O)[O-])cc2F)c(Br)c1 [CBK002821]	115.53
Cc1cc(F)ccc1OC1(C(=O)O)CCN(Cc2ccoc2)CC1 [CBK307187]	26.8477
C/C(=N\N=C1\N=C(O)C(CC(=O)O)S1)c1ccco1 (stereo not shown) [CBK021973]	71.7712
CCSc1nc(=O)c2c(n1C)NC(=O)CC2c1ccccc1 (stereo not shown) [CBK307541]	89.0495
O=c1c2c([nH]c3nc(NCc4ccc(OCc5ccccc5)cc4)nn13)CCC2 [CBK268044]	101.311
CCNC(=O)N[C@H]1CO[C@H]2[C@@H]1OC[C@@H]2Nc1nccc(-c2ccc(OC)cc2)n1 [CBK289528]	89.0845

SMILES	% of control remaining
CCN(C(=O)c1ccncc1)C(CC1CCCCC1)c1ccccc1 (stereo not shown) [CBK061674]	65.0561
Cn1c(CN2C[C@H](O)C[C@H]2c2nc(-c3ccccc3)no2)nc2ccccc21 [CBK288834]	107.417
O=C1N=C(NC2CCCC2)OC12CCN(Cc1ccccc1)CC2 [CBK115430]	106.749
O=[N+]([O-])c1ccccc1/C=N/Nc1nnn[nH]1 [CBK260971]	68.9282
CCn1c(COc2ccccc2)nnc1Sc1ccc([N+](=O)[O-])cc1C=O [CBK267888]	64.5636
O=C(CC1CC1)Nc1cc(-c2ccncc2)c[nH]c1=O [CBK116585]	95.9091
CC(=O)c1cc(CCCO)n(Cc2ccco2)c1C [CBK022013]	104.932
COc1ccc(C(=O)NCCc2ccc(S(N)(=O)=O)cc2)cc1[N+](=O)[O-] [CBK264335]	106.392
CCN1c2ccc(-c3cncn3CC(=O)NC(C)(C)C)cc2CC1C (stereo not shown) [CBK281815]	122.446
O=C(c1cc[nH]n1)N1CCCCC1c1ncc(-c2cccc(F)c2)[nH]1 (stereo not shown) [CBK291217]	104.026
CN1CCC(N2CCN(C(=O)c3cncc(-c4ccc(C(=O)N5CCOCC5)cc4)c3)CC2)CC1 [CBK158600]	83.0216
CCc1[nH]nc(O)c1Cc1c(Cl)cccc1Cl [CBK105304]	134.697
CC(=O)c1cc(CN(C)C(C)c2ccncn2)cs1 (stereo not shown) [CBK307470]	100.433
Cc1cc(Cl)c(S(=O)(=O)Nc2ccon2)cc1OCC(N)=O [CBK266589]	109.46
CSc1ccc(-c2nc(NC(=O)C(C)C)cc3ccccc23)cc1 [CBK085735]	89.4457
O=C(C1CCCCC1)N1CCCC1c1n[nH]cc1-c1ccncc1 (stereo not shown) [CBK283434]	90.5466
CSCCC(=O)Nc1cc(C)nc2ccccc12 [CBK122729]	84.5569
CN(C)Cc1c(O)ccc2occ(C(O)c3ccccc3)c12 (stereo not shown) [CBK261313]	115.519
CC(Cc1ccccn1)N(C)C(=O)c1cnn(-c2ccc(F)cc2)c1 (stereo not shown) [CBK283316]	92.984
Nc1cc(N)nc(SCc2cccnc2)n1 [CBK267459]	111.548
COc1ccc([C@@]23CC[C@@H](NC(=O)c4ccc5c(c4)OC(F)(F)O5)C[C@@H]2N(C)CC3)cc1OC [CBK076658T]	80.0555
CC(C)(CO)CNc1cncc(-c2cccnc2)n1 [CBK037881]	101.527
CC(C)Oc1ncc(C(=O)Nc2cnn(CC(N)=O)c2)cc1Cl [CBK306311]	19.3243
C=Cn1ncc(CN(CCCn2ccnc2)CC2CC=CCC2)c1C (stereo not shown) [CBK283219]	104.632
O=C(CSc1ccccn1)Nc1ccccc1-c1ccccc1 [CBK263553]	89.8484
CCOc1cc(C(=S)N2CCOCC2)ccc1OCc1ccccc1 [CBK027466]	49.0882
C=CCN1C(=O)C2(Nc3ccccc3C(=O)N2c2ccc(Cl)cc2)c2ccccc21 (stereo not shown) [CBK093474]	73.3054

SMILES	% of control remaining
CC(=O)N1CCc2ccc(NC(=O)c3cc(-c4ccc(C(=O)N5CCOCC5)cc4)cnc3N)cc21 [CBK160205]	97.4677
Cn1nc(C(=O)NCc2ccccc2)cc1C(=O)NCc1ccccc1 [CBK270004]	78.0461
Cc1ccc(S(=O)(=O)Nc2ccccc2CNc2ccc(Br)cc2)cc1 [CBK264214]	75.9919
CC(C)Cc1ccc(C(CC(=O)O)C(=O)O)cc1 (stereo not shown) [CBK286703]	106.261
COc1ccc(NC(=O)N(CCO)C2CCCCC2)c(OC)c1 [CBK008768]	94.5862
CN(CCN1CCCCC1)C(=O)Cn1ccnc1-c1ccccc1 [CBK281900]	118.377
COC(=O)c1ccc(N2CCN(C)CC2)c(NC(=O)c2cc(Br)ccc2OC)c1 [CBK269221]	84.7839
CC(C)[C@@H](CO)n1c(=O)[nH]c2ncc(-c3cccc4ccccc34)nc21 [CBK064961]	78.6271
COc1cc(CO)cc(I)c1OCC(=O)Nc1ccccc1 [CBK265950]	98.9411
OC1CCC(Nc2cncc(-c3cccc4ccccc34)n2)CC1 (stereo not shown) [CBK065902]	109.481
CCCn1cnc2sc(C(=O)Nc3ccc(C)cc3C)c(C)c2c1=O [CBK071815]	108.425
COc1ccc(Oc2ccc(C=Cc3nc4sc(C(=O)O)c(C)c4c(=O)[nH]3)cc2[N+](=O)[O-])cc1 [CBK295637]	130.714
CCN(CC)C(=O)CCNC(=O)c1ccc2c(c1)COC(C1CCN(C(=O)OC(C)(C)C)CC1)O2 (stereo not shown) [CBK173273]	78.1269
Cc1nc(-c2ccccc2)sc1C(=O)C1=C(O)C(=O)N(CCN(C)C)C1c1ccc(Cl)cc1 (stereo not shown) [CBK266595]	115.664
Cn1cnnc1SCC(=O)c1cccc(C(F)(F)F)c1 [CBK067718]	94.8337
O=C(NCCO)c1cccc(-c2cncc(N3CCCCC3CCO)n2)c1 (stereo not shown) [CBK037759]	120.487
Cc1cc(C(C)NC(=O)C2CCCN(S(C)(=O)=O)C2)c(C)s1 (stereo not shown) [CBK305464]	51.9697
Cc1nc(N2CCCCC2)ncc1C(=O)NCCc1cc[nH]n1 [CBK307035]	95.7607
CC1CCc2c(sc(NC(=O)COc3ccccc3)c2C(=O)Nc2ccccc2Cl)C1 (stereo not shown) [CBK263044]	88.3275
Clc1ccc(COc2cccc(CNCc3ccccn3)c2)c(Cl)c1 [CBK270060C]	67.2948
COc1ccccc1NC(=O)c1cn(Cc2ccc(N)cc2)cn1 [CBK288045]	87.9005
Cc1ccc(Cl)cc1NC(=O)c1cc(NC(=O)C2CC=CCC2C(=O)O)ccc1N1CCOCC1 (stereo not shown) [CBK268479]	83.0151
O=C(O)c1cc(Sc2nnnn2-c2ccccc2)c2ccccc2c1O [CBK006925]	95.6343
O=C1c2ccccc2CN1CCNS(=O)(=O)c1ccc2oc3ccccc3c2c1 [CBK264918]	88.022
CC1Oc2ccc(S(=O)(=O)Nc3ccc(CCC(=O)O)cc3)cc2NC1=O (stereo not shown) [CBK299769]	125.793
